Source: PubChem BioAssay AID1345082 (National Center for Advancing Translational Sciences (NCATS), 2018)
In all, about 94,000 compounds went through this assay and about 4,000 (4.3%) were called active. Inconclusive means that the source gave no clear call. Such entries were picked first, then a sample of the others. Calls come from the whole dose curve; as a rule, active = well fitted inhibition curve with a large enough effect; inconclusive = small, poorly fitted or top-dose-only effect; inactive = no such curve, though single readings can be large or run the other way. A potency beside an inconclusive call is a rough fit, not a confirmed value.

Experiment: Cytotoxic Profiling in NIH 3T3 Cell Line of Diverse Libraries Using Quantitative High-Throughput Screening; note: nearly all actives have a fitted effect of over 55% in size
Conditions: NIH 3T3 viability, CellTiter-Glo ATP luminescence, 48-72 h; series mostly up to 96.7 µM
Procedure, shortened: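 Cytotoxicity was measured by CellTiter-Glo ATP luminescence after 48 or 72 h compound exposure at 37 °C. Mouse NIH 3T3 fibroblasts were seeded at 400 cells/well and dosed by 23 nL pin transfer.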
Potency is the fitted concentration of half-maximal effect; tags give direction and shape of the fitted curve.

Row | SMILES | Potency
1 | CN1c2cc(C(=O)Nc3ccc(C#N)cc3)ccc2C(=O)N2CCCCC21 (stereo unspecified) | active: 35.5 µM
2 | CCOC(=O)[C@H]1C[C@]2(CCCCN(CCOC)C2=O)N(C(=O)CCc2ccccc2)[C@H]1c1ccco1 | inconclusive: 50.1 µM [inhibitor, single point]
3 | COc1ccc(NC(=O)c2ccc3c(c2)OCC(=O)N(Cc2cnn(C)c2)C3)c(F)c1 | inconclusive: 44.7 µM [inhibitor, full curve, poor fit]
4 | CC(c1cccs1)N(C)C(=O)Nc1ccc(Cl)cc1 (stereo unspecified) | active: 79.4 µM
5 | O=C([C@H]1O[C@H](CCN2CCN(Cc3ccccc3)CC2)CC[C@@H]1O)N1CCN(c2ccc(F)cc2)CC1 | inactive
6 | Cc1ccc(NC(=O)N2CCC(CCNC(=O)CCc3ccccc3)CC2)cc1F | inconclusive: 44.7 µM [inhibitor, partial curve, poor fit]
7 | CCOC(=O)c1cccc(NC(=O)N2CC[C@@H](CC(=O)NCc3ccc(F)cc3)[C@@H](CC)C2)c1 | inactive
8 | O=C([C@@H]1C[C@@H](O)[C@H](O)[C@@H]2NC(=S)N(c3ccc(F)cc3)[C@@H]21)N1CCCCC1 | inactive
9 | CN1c2cccnc2CN(CC2CCCCC2)CC[C@H]1CO | active: 50.1 µM
10 | CC(=O)N1CCC(N2CCN3C(=O)N(c4ccccc4)C[C@H]3C2)CC1 | inactive
11 | Cn1ncc2c(C(=O)Nc3ccccc3F)cc(-c3ccccc3F)nc21 | inactive
12 | O=C1NCCCCCN(C(=O)Cc2cccc(F)c2)[C@@H]2CCCC[C@H]12 | inconclusive: 70.8 µM [inhibitor, partial curve, poor fit]
13 | Cc1ccsc1C(=O)N1CC[C@@H]2COCCN(Cc3ccncc3)[C@@H]2C1 | inactive
14 | Cc1cc2nc3n(c(=O)c2n1CC(=O)Nc1ccc(F)cc1F)CCCCC3 | inconclusive: 70.8 µM [inhibitor, single point]
15 | Cc1ccsc1C(=O)Nc1ccc2c(N3CCCCC3)ncnc2c1 | active: 35.5 µM
16 | CCc1ccc(CN2CCC([C@@H]3CNC[C@H]3CO)CC2)cc1 | inconclusive: 50.1 µM [inhibitor, partial curve, poor fit]
17 | O=C(NCC(=O)N1CCOCC1)c1ccc(-c2cccc(C(F)(F)F)c2)cc1 | inconclusive: 39.8 µM [inhibitor, partial curve, poor fit]
18 | Cc1ccccc1-c1cnc2[nH]cc(CC(=O)Nc3ccn(C)n3)c2c1 | inconclusive: 79.4 µM [inhibitor, partial curve, poor fit]
19 | COc1cccc(-c2noc(CC3CCN(C(=O)CCc4ccccc4)CC3)n2)c1 | inconclusive: 44.7 µM [inhibitor, partial curve, poor fit]
20 | O=C(Cc1ccccc1)Nc1ccc([C@H]2OCC(=O)N[C@@H]2CO)cc1 | inactive
21 | CNC(=O)[C@@H]1CN(C(=O)c2nn(C)c3ccccc23)C[C@H]1c1n[nH]c(C)n1 | inactive
22 | COc1cccc(-c2cc(C(=O)NCC(=O)c3ccccc3)c3cnn(C)c3n2)c1 | inactive

Row | SMILES | Potency
23 | CC1(C)C(=O)N(CCOc2ccccc2)[C@H]2CN(Cc3ccc4c(c3)CCO4)C[C@@H]2[S+]1(=O)[O-] | inconclusive: 44.7 µM [inhibitor, partial curve, poor fit]
24 | COCCCNC(=O)N1CC2(CCCCC2)CC1COc1ccc(OC)cc1 (stereo unspecified) | inconclusive: 44.7 µM [inhibitor, partial curve, poor fit]
25 | CC(C)N1CCN(C(=O)CCC[C@@H]2[C@H]3CCCN4CCC[C@@H](CN2C(=O)c2ccccc2)[C@@H]34)CC1 | inactive
26 | COc1cccc(C(=O)N2CCCC(C(=O)N3CCC(c4nc5ccncc5[nH]4)CC3)C2)c1 (stereo unspecified) | inactive
27 | O=C1CCN(S(=O)(=O)c2ccccc2)CCCN(Cc2ccccn2)CCN1 | inconclusive: 70.8 µM [inhibitor, single point]
28 | CN1CCN(C(=O)c2ccc3nnc(-c4ccc(OC(F)(F)F)cc4)n3c2)CC1 | inactive
29 | CC(C)Cc1cnc(C2CCCN(C(=O)OC(C)(C)C)C2)[nH]1 (stereo unspecified) | active: 89.1 µM
30 | O=C1NC(=NC2CCCC2)C2(CCN(Cc3cccnc3)C2)N1c1cc(F)cc(F)c1 (stereo unspecified) | active: 31.6 µM
31 | O=C(NCCc1ccc(F)cc1)C1CCCN1Cc1ccc(-c2cncnc2)cc1 (stereo unspecified) | inconclusive: 50.1 µM [inhibitor, partial curve, poor fit]
32 | COc1ccc(Nc2cc3c(cn2)CN(CCc2ccccc2)CCN3)cc1 | active: 25.1 µM
33 | CCCN(C)c1nccnc1OC1CCN(C(=O)C2CC2)C1 (stereo unspecified) | inconclusive: 70.8 µM [inhibitor, partial curve, poor fit]
34 | C[S+](=O)([O-])CCn1ncc2cc(OCc3cccc(-c4cccc(F)c4)c3)ccc21 | inconclusive: 20 µM [inhibitor, full curve, poor fit]
35 | O=C(c1nc2cccnc2n(C2CC2)c1=O)N1CCN([S+](=O)([O-])c2cccc(C(F)(F)F)c2)CC1 | inconclusive: 79.4 µM [inhibitor, partial curve, poor fit]
36 | COCCOc1ccnc(-c2noc([C@@H]3CCCN3CC(C)(C)C)n2)c1 | inconclusive: 56.2 µM [inhibitor, partial curve, poor fit]
37 | CN(C)CCNc1cc2c(cn1)NCCN(Cc1ccccc1)C2 | inconclusive: 79.4 µM [inhibitor, partial curve, poor fit]
38 | O=S1(=O)c2cccnc2OC(COc2ccccc2)CN1Cc1cccs1 (stereo unspecified) | active: 28.2 µM
39 | CC(C)c1noc(-c2cn(C3CCCN(C(=O)c4cccs4)C3)nn2)n1 (stereo unspecified) | inconclusive: 70.8 µM [inhibitor, partial curve, poor fit]
40 | CC(C)N1CCC(Cc2ccc(CCNC(=O)c3cccs3)cc2)CC1 | inconclusive: 50.1 µM [inhibitor, partial curve, poor fit]
41 | O=C1NC2(CCCN(C(=O)c3ccc(F)cc3)C2)COc2ccccc21 (stereo unspecified) | inconclusive: 56.2 µM [inhibitor, partial curve, poor fit]
42 | O=C(c1ccc2[nH]ccc2c1)N1CCCC(n2cc(-c3nc(C4CC4)no3)nn2)C1 (stereo unspecified) | inconclusive: 44.7 µM [inhibitor, partial curve, poor fit]
43 | Cn1nccc1C(=O)N1C[C@@H](Oc2cccnc2)C[C@H]1C(=O)N1CCCC1 | inactive
44 | COc1ccc(NC(=O)CCC2CCN(C(=O)c3ccccc3F)CC2)c(OC)c1 | inactive

Row | SMILES | Potency
45 | COC(=O)N1CCCC(C(=O)N2CCCC(c3nc4ccncc4[nH]3)C2)C1 (stereo unspecified) | inactive
46 | Cc1ccc(-c2nocc2CCC(=O)NCc2ccc(F)cc2Cl)cc1 | inconclusive: 70.8 µM [inhibitor, single point]
47 | O=C(O)C[C@@H]1CCN(C(=O)NC2CCCCC2)C[C@@H]1CCN1CCCCC1 | inactive
48 | CC(C)CNC(=O)C1Cn2cccc2C(=O)N1Cc1cccnc1 (stereo unspecified) | inactive
49 | COc1ccc2[nH]cc(CCNC(=O)c3c(-c4ccccc4)cc(=O)n4c3CCCC4)c2c1 | inconclusive: 39.8 µM [inhibitor, partial curve, poor fit]
50 | COc1ccccc1Cn1c(C(C)NC(=O)OCc2ccccc2)nc2cccnc21 (stereo unspecified) | inconclusive: 44.7 µM [inhibitor, partial curve, poor fit]
51 | NC1CC(c2cc(N3CCN(c4cnccn4)CC3)nc(C3CC3)n2)C1 (stereo unspecified) | inconclusive: 79.4 µM [inhibitor, single point]
52 | O=C(NCc1ccc(F)c(F)c1)C1CCCN(c2ccnc3ccnn23)C1 (stereo unspecified) | inconclusive: 39.8 µM [inhibitor, partial curve, poor fit]
53 | O=C(Cc1ccc(F)cc1)N1CCN(c2nccc(Nc3ccccc3Cl)n2)CC1 | active: 28.2 µM
54 | CCc1ccc(NC(=O)N2CCC(OC3CCN(S(C)(=O)=O)CC3)CC2)cc1 | inactive
55 | Cc1ccccc1S(=O)(=O)N1CCC2(CC1)CC(OCC1CC1)CCO2 (stereo unspecified) | inactive
56 | Cn1c(CNC(=O)CC2CCOCC2)nc2ccccc21 | inconclusive: 50.1 µM [inhibitor, partial curve, poor fit]
57 | O=C(C[C@H]1NC(=O)c2ccccc2NC1=O)Nc1nc(-c2ccncc2)cs1 | inconclusive: 35.5 µM [inhibitor, single point]
58 | CCc1cc(=O)n(CC(=O)Nc2cccc(C(C)C)c2)c(N2CCOCC2)n1 | inconclusive: 44.7 µM [inhibitor, partial curve, poor fit]
59 | Cn1ccc(NC(=O)[C@@H]2C[C@H](c3ccc(F)cc3)N(Cc3ccccc3Cl)C2)n1 | inconclusive: 56.2 µM [inhibitor, partial curve, poor fit]
60 | O=C(CC1CCCC1)N1CC(c2noc(COc3ccccc3)n2)C1 | inconclusive: 50.1 µM [inhibitor, partial curve, poor fit]
61 | COc1cccc(N2CC(C(=O)N3CCOCC3)NC2=O)c1 (stereo unspecified) | inactive
62 | CC(C(=O)NC1CC1)[C@@H]1CC[C@@]2(C)CC[C@H](NC(=O)CC(C)(C)C)[C@@H](C)[C@@H]2[C@H]1O (stereo partly specified) | inactive
63 | C[S+](=O)([O-])CCn1ncc2cc(OCc3cccc(-c4cncnc4)c3)ccc21 | inconclusive: 79.4 µM [inhibitor, partial curve, poor fit]
64 | O=C(Nc1ccc(Cl)cc1Cl)c1c[nH]c2cccnc12 | inconclusive: 79.4 µM [inhibitor, partial curve, poor fit]
65 | O=C1NC2(CCN(Cc3cccc4ccccc34)C2)OCc2ccccc21 (stereo unspecified) | inconclusive: 50.1 µM [inhibitor, partial curve, poor fit]
66 | Cc1cc(C)c(CNC(=O)c2nc(-c3cccc(O)c3)cc3[nH]ccc23)c(=O)[nH]1 | active: 50.1 µM
